Test: label from the status in PepcDB records

MKDIDTLISNNALWSKMLVEEDPGFFEKLAQAQKPRFLWIGCSDSRVPAERLTGLEPGELFVHRNVANLVIHTDLNCLSVVQYAVDVLEVEHIIICGHYGCGGVQAAVENPELGLINNWLLHIRDIWFKHSSLLGEMPQERRLDTLCELNVMEQVYNLGHSTIMQSAWKRGQKVTIHGWAYGIHDGLLRDLDVTATNRETLEQRYRHGISNLKLKHANHK
protein production: not failed

YKLVCYYTSWSQYREGDGSCFPDALDRFLCTHIIYSFANISNDHIDTWEWNDVTLYGMLNTLKNRNPNLKTLLSVGGWNFGSQRFSKIASNTQSRRTFIKSVPPFLRTHGFDGLDLAWLYPGRRDKQHFTTLIKEMKAEFIKEAQPGKKQLLLSAALSAGKVTIDSSYDIAKISQHLDFISIMTYDFHGAWRGTTGHHSPLFRGQEDASPDRFSNTDYAVGYMLRLGAPASKLVMGIPTFGRSFTLASSETGVGAPISGPGIPGRFTKEAGTLAYYEICDFLRGATVHRTLGQQVPYATKGNQWVGYDDQESVKSKVQYLKDRQLAGAMVWALDLDDFQGSFCGQDLRFPLTNAIKDALAAT
protein production: failed
